# According to the supplement of paper PMC8813932:
# Where a name gives a salt, the structure may show the parent alone. ± gives the standard deviation of the averaged measurements. The list shows a part of the results. Repeats are few or missing, and single values can be far off.
# Legend:
# Assay in all cases: log2 surviving fraction relative to plate median (drug vs vehicle, or drug+dl922-947 vs dl922-947 alone); ovarian cancer lines: OVCAR4 is platinum-sensitive while Ov4Cis resists cisplatin and Ov4Carbo carboplatin; higher = more cell survival
# Details in all cases: compound concentration: 10 uM, 192 h
# [1] = tested on: OVCAR4
# [2] = tested on: Ov4Carbo
# [3] = tested on: Ov4Cis
# [4] = dl922-947 oncolytic adenovirus co-treatment: MOI 10
# [5] = dl922-947 oncolytic adenovirus co-treatment: none
Compound,"log2 surviving fraction [1, 4]","log2 surviving fraction [1, 5]","log2 surviving fraction [2, 4]","log2 surviving fraction [2, 5]","log2 surviving fraction [3, 4]","log2 surviving fraction [3, 5]"
CN(C)c1ccc(C(=C2C=CC(=[N+](C)C)C=C2)c2ccc(N(C)C)cc2)cc1 [Crystal violet],-8.395 ± 0.052,-9.96 ± 5.5,-7.49,-10.9,-7.16,-11.7
CC1=NN(c2ccc(C)c(C)c2)C(=O)/C1=N\Nc1cccc(-c2cccc(C(=O)O)c2)c1O,-2.27 ± 0.54,-4.79 ± 1.7,-4.16,-4.63,-2.06,-3.32
CCOC(=O)C1=C[C@@H](OC(CC)CC)[C@H](NC(C)=O)[C@@H](N)C1 [Oseltamivir phosphate (Tamiflu)],-0.16 ± 0.12,-0.0242 ± 0.61,-0.103,-0.543,0.24,0.515
COc1ccc(Cl)cc1C(=O)NCCc1ccc(S(=O)(=O)NC(=O)NC2CCCCC2)cc1 [Glyburide (Diabeta)],-0.267 ± 0.054,-0.766 ± 0.075,-0.00793,0.963,-0.795,-0.241
COc1ccc(C(=O)CC(=O)c2ccc(C(C)(C)C)cc2)cc1 [Avobenzone (Parsol 1789)],-0.111 ± 0.31,-0.47 ± 0.41,-0.416,-0.486,0.0334,-0.379
CCOc1cc(N)c(Cl)cc1C(=O)NCC1CN(Cc2ccc(F)cc2)CCO1 (configuration not stated) [Mosapride citrate],-0.59 ± 0.23,-0.00476 ± 0.053,-0.162,1.07,-0.28,0.11
COc1ccc(O)cc1 [Mequinol],-0.529 ± 0.037,-0.584 ± 0.6,-0.324,-0.859,-0.884,0.185
CCN1CCN(c2cc3c(cc2F)c(=O)c(C(=O)O)cn3C2CC2)CC1 [Enrofloxacin],0.174 ± 0.15,1.35 ± 1.5,-1.87,1.22,0.389,-0.784
Nc1cc(C(Cl)=C(Cl)Cl)c(S(N)(=O)=O)cc1S(N)(=O)=O [Clorsulon],0.516 ± 0.75,0.555 ± 0.59,0.494,0.714,-0.182,0.574
C=CC[N+]1([C@H]2C[C@H]3[C@@H]4CC[C@H]5C[C@H](O)[C@@H](N6CCOCC6)C[C@]5(C)[C@H]4CC[C@]3(C)[C@H]2OC(C)=O)CCCC1 [Rocuronium bromide],-0.356 ± 0.65,-0.277 ± 0.25,1.62,1.43,-0.726,-0.352
C=C1CC[C@H](O)C/C1=C/C=C1\CCC[C@]2(C)[C@@H]([C@H](C)CCCC(C)(C)O)CC[C@@H]12 [Calcifediol],-1.54 ± 0.14,-1.66 ± 0.92,-1.79,-2.59,-1,-3.17
Cc1ccc(-c2cc(C(F)(F)F)nn2-c2ccc(S(N)(=O)=O)cc2)cc1 [Celecoxib],1.7 ± 0.28,2.87 ± 3.1,1.93,-0.711,1.38,1.46
NS(=O)(=O)c1cc2c(cc1Cl)NCNS2(=O)=O [Hydrochlorothiazide],-0.36 ± 0.69,0.586 ± 0.44,-0.00736,1.22,0.487,-0.0762
CC#C[C@]1(O)CC[C@H]2[C@@H]3CCC4=CC(=O)CCC4=C3[C@@H](c3ccc(N(C)C)cc3)C[C@@]21C [Mifepristone (Mifeprex)],-0.399 ± 0.55,-2.19 ± 1.1,0.237,-3.27,-0.386,-2.81
CN(C)CC/C=C1/c2ccccc2COc2ccc(CC(=O)O)cc21 [Olopatadine hydrochloride (Opatanol)],0.266 ± 0.043,0.492 ± 0.16,0.219,0.278,0.957,0.367
c1ccc([C@H]2CN3CCSC3=N2)cc1 [Levamisole Hydrochloride (Ergamisol)],0.309 ± 0.39,0.872 ± 0.35,-0.906,0.25,0.124,0.6
NC(=O)C(c1ccccc1)(c1ccccc1)[C@@H]1CCN(CCc2ccc3c(c2)CCO3)C1 [Darifenacin HBr],-0.672 ± 0.43,-1.04 ± 0.065,-0.0517,-0.572,-1.71,-0.295
CCC(=O)O[C@]1(C(=O)CCl)[C@@H](C)C[C@H]2[C@@H]3CCC4=CC(=O)C=C[C@]4(C)[C@@]3(F)[C@@H](O)C[C@@]21C [Clobetasol propionate],0.124 ± 0.87,-1.96 ± 0.23,-0.764,-1.22,0.0633,-1.94
CCOCC(O)COc1ccc(NC(=O)CC[S+](C)C)cc1 (configuration not stated) [Suplatast tosylate],-0.182 ± 0.13,-0.288 ± 0.01,0.398,-0.84,-0.464,-0.48
O=C(O)C1=CO[C@@H](O[C@@H]2O[C@H](CO)[C@@H](O)[C@H](O)[C@H]2O)[C@@H]2C(CO)=CC[C@H]12 [Geniposidic acid],0.84 ± 0.62,0.642 ± 1.1,0.131,1.24,0.858,1.02
CC[C@H]1OC(=O)[C@H](C)[C@@H](O[C@H]2C[C@@](C)(OC)[C@@H](O)[C@H](C)O2)[C@H](C)[C@@H](O[C@@H]2O[C@H](C)C[C@H](N(C)C)[C@H]2O)[C@](C)(O)C[C@@H](C)[C@@H]2N[C@@H](COCCOC)O[C@H]([C@H]2C)[C@]1(C)O [Dirithromycin],-0.466 ± 0.37,-0.432 ± 0.49,-1.2,-0.45,0.39,-0.516

Compound,"log2 surviving fraction [1, 4]","log2 surviving fraction [1, 5]","log2 surviving fraction [2, 4]","log2 surviving fraction [2, 5]","log2 surviving fraction [3, 4]","log2 surviving fraction [3, 5]"
CS(=O)(=O)Nc1ccc([N+](=O)[O-])cc1Oc1ccccc1 [Nimesulide],-0.297 ± 0.57,-0.548 ± 0.24,0.0766,0.315,-1.23,-0.791
CCOC(=O)O[C@]1(C(=O)OCCl)CC[C@H]2[C@@H]3CCC4=CC(=O)C=C[C@]4(C)[C@H]3[C@@H](O)C[C@@]21C [Loteprednol etabonate],1.66 ± 1.3,-0.824 ± 1.9,1.27,-0.345,1.27,-2.57
CC(C)(Oc1ccc(CCNC(=O)c2ccc(Cl)cc2)cc1)C(=O)O [Bezafibrate],0.901 ± 0.15,0.59 ± 0.42,1.31,0.553,0.953,0.333
CCOC(=O)[C@H](CCc1ccccc1)N[C@H]1CCc2ccccc2N(CC(=O)O)C1=O [Benazepril hydrochloride],0.862 ± 0.21,0.417 ± 0.12,0.547,1.51,0.69,0.702
CCOC(=O)CC(=O)N1CCSC1COc1ccccc1OC (configuration not stated) [Moguisteine],-0.0719 ± 0.8,0.347 ± 0.11,0.604,0.345,-0.405,0.593
C[C@@H]1C/C=C/C=C/C=C/C=C/[C@H](O[C@@H]2O[C@H](C)[C@@H](O)[C@H](N)[C@@H]2O)C[C@@H]2O[C@](O)(C[C@@H](O)C[C@H]3O[C@@H]3/C=C/C(=O)O1)C[C@H](O)[C@H]2C(=O)O [Natamycin (Pimaricin)],-0.17 ± 0.52,-0.152 ± 0.32,-0.354,-0.147,-0.729,-0.366
CN[C@H](CC(C)C)C(=O)N[C@H]1C(=O)N[C@@H](CC(N)=O)C(=O)N[C@H]2C(=O)N[C@H]3C(=O)N[C@H](C(=O)N[C@H](C(=O)O)c4cc(O)cc(O)c4-c4cc3ccc4O)[C@H](O)c3ccc(c(Cl)c3)Oc3cc2cc(c3O[C@@H]2O[C@H](CO)[C@@H](O)[C@H](O)[C@H]2O[C@H]2C[C@](C)(N)[C@H](O)[C@H](C)O2)Oc2ccc(cc2Cl)[C@H]1O [Vancomycin HCl (Vancocin)],0.721 ± 0.57,0.314 ± 1.4,0.297,0.904,0.504,0.07
CCCCc1nc(Cl)c(CO)n1Cc1ccc(-c2ccccc2-c2nnn[nH]2)cc1 [Losartan potassium],-0.278 ± 0.85,-1.27 ± 0.5,-0.243,0.463,-0.62,-0.341
CC1(C)O[C@@H]2C[C@H]3[C@@H]4CCC5=CC(=O)C=C[C@]5(C)[C@@]4(F)[C@@H](O)C[C@]3(C)[C@]2(C(=O)CO)O1 [Triamcinolone Acetonide],0.879 ± 0.33,0.452 ± 0.61,2.68,0.342,1.95,-0.897
CCCNCC(O)COc1ccccc1C(=O)CCc1ccccc1 (configuration not stated) [Propafenone (Rytmonorm)],-1.15 ± 0.071,-1.05 ± 0.34,-1.22,-0.765,-2.77,-1.06
Cc1c(Cl)cccc1Nc1ccccc1C(=O)O [Tolfenamic acid],-0.00229 ± 0.22,0.915 ± 0.46,1.5,-0.748,-0.066,-0.0476
CC(NC(C)(C)C)C(=O)c1cccc(Cl)c1 (configuration not stated) [Amfebutamone (Bupropion)],0.849 ± 0.21,1.03 ± 0.49,0.607,1.26,1.24,0.347
CC[C@]1(O)C[C@@H]2CN(CCc3c([nH]c4ccccc34)[C@@](C(=O)OC)(c3cc4c(cc3OC)N(C)[C@H]3[C@@](O)(C(=O)OC)[C@H](OC(C)=O)[C@]5(CC)C=CCN6CC[C@]43[C@@H]65)C2)C1 [Vinblastine],0.156 ± 0.13,-2.48 ± 1.9,0.445,-0.97,-0.00901,-0.0314
Clc1ccc2c(c1)CCc1cccnc1C2=C1CCNCC1 [Desloratadine],-4.14 ± 4.1,-2.62 ± 1.9,-7.22,-8.16,-2.84,-3.06
CC[C@@H](CO)NCCN[C@@H](CC)CO [Ethambutol HCl],0.209 ± 0.43,0.436 ± 0.33,0.0295,-0.356,0.634,-0.575
COC1=C(OC)C(=O)C(CCCCCCCCCCO)=C(C)C1=O [Idebenone],0.0176 ± 0.15,-0.606 ± 1,0.502,-0.00142,0.254,0.598
CC(C)(C)NCC(O)c1ccc(O)c(CO)c1 (configuration not stated) [Salbutamol sulfate (Albuterol)],-0.365 ± 0.46,0.0866 ± 0.2,-0.53,0.185,-0.203,-0.0178
NC[C@H](O)c1ccc(O)c(O)c1 [Noradrenaline bitartrate monohydrate (Levophed)],-0.277 ± 0.57,0.208 ± 0.093,-0.449,-1.22,-0.212,1.11
CN(C)[C@@H]1C(O)=C(C(N)=O)C(=O)[C@@]2(O)C(O)=C3C(=O)c4c(O)cccc4[C@@](C)(O)[C@H]3C[C@@H]12 [Tetracycline HCl],1.04 ± 0.11,0.103 ± 1.8,-0.00279,0.464,1.28,0.557
CCC(C)(C)c1ccc(CC(C)CN2C[C@@H](C)O[C@@H](C)C2)cc1 (some centres not stated) [Amorolfine Hydrochloride],-0.0239 ± 0.85,0.324 ± 0.047,-0.0337,-0.185,0.32,-0.316
C/C(=C(\CCOP(=O)(O)O)SC(=O)c1ccccc1)N(C=O)Cc1cnc(C)nc1N [Benfotiamine],-0.208 ± 0.68,-0.816 ± 0.4,-0.523,0.403,-0.476,0.576
